# Measurements as given in PubChem BioAssay AID485344 (National Center for Advancing Translational Sciences (NCATS), 2010).
# Hit rate of the full screen: of about 340,000 compounds, about 6,900 (2%) were called active. Cut-off read from the data, not from the text of the source: active = inhibition above about 30%; inactive = below that, where a call was filed. The list shows a part of the results, in another mix than the full data. Where no call is shown, the source filed none.
# Molecular target: D(2) dopamine receptor (Homo sapiens) (UniProt P14416)
# Assay: HTS Assay for Allosteric Antagonists of the Human D2 Dopamine Receptor: Primary Screen for Antagonists; note: 0% is about no effect
# Conditions: HEK293 TREx D2 cells, calcium flux, dopamine EC80; at 10 µM; stronger effect = higher value
# Outline: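 Calcium mobilization kinetics were recorded at 1 s intervals in tetracycline-induced HEK293 T-REx D2 cells, first for 180 s after compound addition and then 180 s after EC80 dopamine.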
# Sequence of UniProt P14416 (P14416 whole entry, looked up): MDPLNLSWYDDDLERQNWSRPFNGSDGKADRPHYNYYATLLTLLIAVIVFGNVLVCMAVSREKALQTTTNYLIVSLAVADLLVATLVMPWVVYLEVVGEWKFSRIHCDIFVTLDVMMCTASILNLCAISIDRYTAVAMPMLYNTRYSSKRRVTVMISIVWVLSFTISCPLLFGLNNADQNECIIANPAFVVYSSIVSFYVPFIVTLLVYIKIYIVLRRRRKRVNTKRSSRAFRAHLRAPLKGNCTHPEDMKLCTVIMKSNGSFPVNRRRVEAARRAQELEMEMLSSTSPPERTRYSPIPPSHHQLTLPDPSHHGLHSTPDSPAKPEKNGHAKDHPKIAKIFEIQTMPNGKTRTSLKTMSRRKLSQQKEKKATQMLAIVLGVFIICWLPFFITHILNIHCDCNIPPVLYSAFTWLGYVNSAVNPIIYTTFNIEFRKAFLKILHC
row,Structure (SMILES),inhibition
1,Cc1cccc(C(=O)NC2=NC(c3ccc(Cl)cc3)CC(=O)N2)c1 (stereo unspecified),-6.29%
2,CCOC(=O)C(=CNc1ccc(OC)cc1[N+](=O)[O-])C(=O)OCC,active: 31.3%
3,COc1ccccc1NC(=O)c1sc2nc3c(cc2c1N)CN(Cc1ccccc1)CC3,-3.57%
4,Cc1ccccc1C(=O)NCC(=O)NNC(=O)CCN1CCN(c2ccccc2)CC1,active: 72.1%
5,Cc1cc(C(=O)CSc2nnc(-c3ccc(F)cc3)o2)c(C)n1CC1COc2ccccc2O1 (stereo unspecified),active: 41.2%
6,COc1ccc(CC(=O)NCCS(=O)(=O)N2CCN(c3ccc(F)cc3)CC2)cc1OC,0.89%
7,COCCn1c(C)cc(O)c(C(c2ccc(F)cc2)N2CCN(c3ccccc3)CC2)c1=O (stereo unspecified),7.91%
8,O=C(CSc1nc(=O)[nH]c2c1CCCC2)NCc1ccc(F)cc1,-1.91%
9,CCc1nc(C)cn1S(=O)(=O)c1ccc(Cl)c(Cl)c1OC,20.8%
10,N#Cc1ccccc1Cn1cnc2nc3c(cc2c1=O)CCCC3,23.6%
11,COc1ccc2c(c1)c1c(c(=O)n(Cc3ccccc3)c(=O)n1CC(=O)NCc1ccccc1)n2C,-3.57%
12,O=C(Cn1cc(/C=N/O)c2ccccc21)N1CCOCC1,active: 39.2%
13,COc1ccc(CNCc2c(C(=O)O)n(Cc3ccc(F)cc3)c3cc(C)ccc23)cc1OC,-22.4%
14,CCC(=O)N1CCc2cc(Br)cc(S(=O)(=O)CCC(=O)Nc3cccc(C)c3C)c21,23.5%
15,CN(C)CCN(Cc1ccco1)C(=O)c1oc2ccccc2c1NC(=O)c1cccc(F)c1,-2.65%
16,CCOCCCNC(=O)c1ccc(-n2c(-c3ccccc3)cc3c2CCCCC3)cc1,12.2%
17,COc1ccc(Cn2c(=O)c3ccccc3n3c(-c4cccc(OC)c4OC)nnc23)cc1,6.6%
18,Cc1cccc(NC(=O)C2CCN(c3cnccn3)CC2)c1,-6.02%
19,CC1CCN(S(=O)(=O)c2ccc3c(c2)oc(=O)n3CC(=O)O)CC1,-5.37%
20,COc1ccc(CC(=O)Nc2ccc3nc(N4CCCCC4)cc(C)c3c2)cc1,-28.6%
21,CC1CCCN(CCOc2ccc(Br)cc2)C1 (stereo unspecified),active: 62.9%

row,Structure (SMILES),inhibition
1,CCOC(=O)c1c(NC(C)=O)c2c3c(sc2n1Cc1nc(-c2ccccc2Cl)oc1C)CCCC3,-9.81%
2,CCOc1ccc(NC(=O)CCc2c(C)nc3cc(-c4ccc(Cl)cc4)nn3c2C)cc1,-0.677%
3,CC(C)CNS(=O)(=O)c1ccc(N2CCCCS2(=O)=O)cc1,-20.4%
4,CCCCCn1c(=O)[nH]c2cc(C(=O)NCc3ccccc3)ccc2c1=O,0.529%
5,Cc1ccc(CNC(=O)CS(=O)(=O)Cc2nc(-c3ccccc3C)oc2C)cc1,-24.6%
6,CCCOc1ccc(NC(=O)C(=O)NCCCN2CCOCC2)cc1,-5.98%
7,COc1ccc(CNC(=O)Cc2c(C)c3c(cc(C)c4c(C)c(C)oc43)oc2=O)cc1OC,13.2%
8,Cc1cccc(Cn2c(SCc3ccc(C(=O)NC4CCCC4)cc3)nc3ccncc32)c1,7.72%
9,Cc1cccc(-c2noc(CNC(=O)c3ccccc3Br)n2)c1,-11.9%
10,Cc1ccc(NC(=O)c2sc(-n3nc(C)c(Cc4ccc5c(c4)OCO5)c3C)nc2C)cc1Cl,-6.12%
11,Cc1cc(=O)oc2cc(OCC(=O)Nc3ccc(O)c(C(=O)O)c3)ccc12,2.69%
12,Oc1ccc(NCc2ccc(OCc3ccccc3)cc2)cc1,5.99%
13,CCOc1ccc(CC(=O)N2CCc3cc(OC)c(OC)cc3C2COc2ccc3c(C)cc(=O)oc3c2)cc1 (stereo unspecified),-7.93%
14,Cc1ccc(NC(=O)Cn2c(=O)n(CC(=O)NCCc3ccccc3)c(=O)c3ccccc32)cc1C,-17.3%
15,CCCCc1nc(SCC(=O)Nc2ccc(S(N)(=O)=O)cc2)n[nH]1,14.4%
16,CCc1cccc(NC(=O)Nc2cn(C)c(=O)c3ccccc23)c1,23.6%
17,Cc1ccc(C(=O)COC(=O)c2cc(-c3cccs3)nc3ccccc23)cc1,8.68%
18,COc1cccc(NC(=O)C2CCN(S(=O)(=O)c3c(C)noc3C)CC2)c1,-4.06%
19,COc1ccc(-c2noc(CCC(=O)Nc3cccc(C)c3C)n2)cc1OC,-2.57%
20,Cc1ccc(S(=O)(=O)c2cn(CC(=O)Nc3ccc(F)cc3)c3cc4c(cc3c2=O)OCO4)cc1,19.8%
21,CC(C)OCCCNC(=O)Cc1ccc(NC(=O)N2CCCCc3ccccc32)cc1,18.2%

row,Structure (SMILES),inhibition
1,CCc1ccccc1NC(=O)Cn1c(=O)n(-c2cccc(C)c2)c(=O)c2c1c1cc(OC)ccc1n2C,1.01%
2,N#CC[C@H](Cc1ccccc1)N1CCN(CCc2ccccc2)CCC1=O,active: 33.6%
3,CCOC(=O)CC(NC(=O)c1cc2c(=O)n3cccc(C)c3nc2s1)c1ccc(OCC)c(OC)c1 (stereo unspecified),2.9%
4,Cc1cc(C)c2nc(N3CCCC(C(=O)NCc4ccccc4F)C3)sc2c1 (stereo unspecified),-6.81%
5,CCCn1cc(S(=O)(=O)c2ccc(C)c(C)c2)c(=O)c2cc(F)c(N3CCC(C)CC3)cc21,0.731%
6,CCn1c(=O)n(-c2ccc3c(c2)OCO3)c2nc(-c3cccc(OC)c3OC)nc(C(N)=O)c21,-14.9%
7,Cc1ccccc1C(=O)Nc1cc2c(cc1N1CCCCC1)n(C)c(=O)n2C,12.5%
8,COc1ccc(N2CCN(C(=O)c3ccc4c(c3)N(Cc3cccc(Cl)c3)C(=O)c3ccccc3S4(=O)=O)CC2)cc1,-4.61%
9,COc1ccc(C)cc1NC(=O)C(NCC(O)c1ccccc1)c1ccccc1 (stereo unspecified),active: 33.5%
10,CCc1ccc(S(=O)(=O)Nc2ccc(N3CCN(C)CC3)cc2)cc1,active: 75%
11,O=C(Cn1c(=O)n(-c2ccc(Cl)cc2)c(=O)c2c3c(sc21)CCCCC3)Nc1cccc(Cl)c1,20.4%
12,O=C(c1cc2nc(-c3cccs3)cc(C(F)(F)F)n2n1)N1CCCc2ccccc21,active: 31.2%
13,O=C(NCc1cccc(Cl)c1)c1cc2c(s1)-c1ccccc1SC2,3.05%
14,COc1ccc(OCCOC(=O)c2ccc(F)c(S(=O)(=O)N3CCOCC3)c2)cc1,active: 49.2%
15,COc1cccc(CNS(=O)(=O)c2ccc3c(c2)CC(C)N3C(=O)C2CCC2)c1 (stereo unspecified),7.99%
16,Cc1ccc2cccc(NC(=O)c3cccc4c(Br)cccc34)c2n1,2.12%
17,COc1ccc(C)cc1NC(=O)C(=O)NCC(c1cccnc1)N1CCN(c2ccccc2F)CC1 (stereo unspecified),12.8%
18,Cc1ccc(C)c(NC(=O)CCOc2ccccc2)c1,1.87%
19,Cc1ccc2nc(-c3ccc(F)cc3)c(NC(C)(C)CC(C)(C)C)n2c1,5.83%
